Drawing on the RNAGym collection of RNA variant scans (doi:10.7554/elife.90254), this text covers self-cleavage for 167 variants.

The source gives no read counts; variants with many changes may rest on few reads.

B1: LINE1-full (parent)
chain: UACGUAGGUGGUUUUCCCCUGAUAGUGCUAAGGGGGCCUGGAAGUUUGGACUGGGCAGAGCUCAACACAGCGUGGCAAAGUGGCUGUGGCUAGACUGCCUCUCUGGAUUCCUCGUCACUCAGCAGGGCAUCUCUGAGAGAAAUGCC

This series covers variants of B1. The series can be described thus: self-cleavage, relative activity (ratio to wild type); higher = more cleavage; in vitro, sequencing; the parent is a self-cleaving ribozyme.
On to G4A G60U C63U A65G U134C, for which the self-cleavage came out at 0.06.
Take C3U U29G U104C U134C C146A: the self-cleavage turned out to be 1.15.
With A2G U20C U143C the figure was 0.38; with A2G U20C A43G A59U A69G A77U U87G A140G, 0.
U5A U85A A129G: the self-cleavage turned out to be 0.
With C3U U9C U12C U52A the figure was 1.48; with G4U U26C A107G, 1.84; with C3U G55A A77G G114A, 0.22.
With U5A G21A A107G, the self-cleavage is 0.71.
To U5A A50G C51U A64G belongs 0; to U5C A69G U132C, 0.36; to C3U A42G A64U U73G A129G, 0.23.
Turning to C3G A30U U46C, the self-cleavage amounted to 0.24.
Take U5C A6G A42G: the self-cleavage is 0.
For U5A U12C U15C A67G U102C U143A, the self-cleavage was 0.38.
Consider C3U A43G U47G U52A G70A U119C, for which the self-cleavage was 0.23.
To A2U U13G U87A A141G belongs 0.3; to A2G U96A U130C U134A, 0.27.
For A2U U87C A121G A140G, the self-cleavage worked out at 0.51.
On to G4U U20A A22G U62C U132A A140C, for which the self-cleavage was determined as 0.
For the variant U5C A24G U39C U47A A59G A79U A129U, the self-cleavage worked out at 0.26.
As for U5A U9C A30U U130C A140G, the self-cleavage was 0.85.
To U5C U12A U20C A57G belongs 0.42; to A2G U15A U39A A67U G83A U108A, 0.15.
A2G U15C U108C C113A U134C A142G: the self-cleavage came to 1.44.
On to U5C A24U U47C U130C, for which the self-cleavage is 0.68.
In the case of C3A G10A A24G A43U, the self-cleavage came to 0.64.
As for U5A G7U U13A, the self-cleavage turned out to be 0.77.
On to G4A G34A A59U A67U A77G U87A A117G A138G, for which the self-cleavage worked out at 0.97.
With A2U A65U U108C the figure was 0.2; with C3U C61U U73C, 0.12; with U5A A22U U108A, 0.2.
With U5A A57G A129U the figure was 0.7; with U5C A136G A141G U143A, 1.75; with U5C A57G U109A, 0.97.
With G4A U5C A64G C101A the figure was 0.19.
Turning to A2G U29C A43U A69G, the self-cleavage was 0.78.
With A2G U15C U115C, the self-cleavage is 0.46.
With A2G U15C U23A the figure was 1.53; with G4A U15C A43G A64U U73A U87A U102C, 0.07; with A2G U23C C37U U108C, 0.93.
In the case of G4C U26G U45C A129G, the self-cleavage amounted to 1.38.
To U5C C38A U100C belongs 1.39; to U5C A6U U87A U134C, 0.69; to G4A A69U U102C C118U, 0.02.
Turning to A2G U39A U85C U115C U119C A141G, the self-cleavage amounted to 0.
As to G4A A31U U45G, the self-cleavage worked out at 1.18.
On to A2U U13A U87C A141G, for which the self-cleavage came out at 0.17.
On to U5C G21A A31G A57G U81C A140U, for which the self-cleavage was found to be 0.77.
With G4A U20A G33A G70A C71U G144A the figure was 0.15; with C3U U104A U143A, 0.83; with U5A U13C C101U U119C A141G, 1.08.
To U5A U20C A94G A138G belongs 0.41; to U5A C101A U109A A140G, 1.07.
With U5A U81G A141G the figure was 0.88.
For the variant G4A U13C C111U, the self-cleavage turned out to be 0.83.
In the case of U5C A79U A138G, the self-cleavage is 0.28.
With G4U U14A A50G G54U the figure was 0.2; with G4A U52C U143C, 0.42.
For the variant G4U U13C A57G U96A A107G, the self-cleavage came out at 0.
To G4A A43G G53A belongs 0.39; to U5C U12C U20C U29A A124U, 1.53.
In the case of U5C A50G C146U, the self-cleavage was determined as 1.08.
In the case of U5C C19U U102A U119C, the self-cleavage was 0.78.
Consider G4A U13A A117G A124G, for which the self-cleavage is 0.61.
As to A2G U91A U96C, the self-cleavage is 0.5.
U5C U12G A79G U112C: the self-cleavage is 2.83.
For the variant A2G U102A U108C, the self-cleavage was found to be 0.77.
For the variant A2G U46C G48A A77G, the self-cleavage is 1.15.
On to U5C A31U U130C, for which the self-cleavage is 1.02.
Take U5A U12C U39C: the self-cleavage is 0.74.
Turning to A2U A77U A78G A107G, the self-cleavage is 0.
Regarding U5C A65G A141G A142G, the self-cleavage turned out to be 0.55.
U5C G54A U108C U132C A142G C146U: the self-cleavage was 1.92.
With U5C U9C A57U U73A A77G C145U, the self-cleavage is 0.12.
Regarding G4A G33U U39A U46A A64U A79G A129U A136G, the self-cleavage amounted to 0.33.
For A2G U47C U81A U109C A136G, the self-cleavage is 1.84.
For the variant C3G U14C A42G U46C A138G A142G, the self-cleavage amounted to 1.15.
On to U5C A24G A42G, for which the self-cleavage amounted to 1.31.
Turning to U5A A59G A64G A67U U119C, the self-cleavage worked out at 0.
For the variant U5C A6U U9C A78G, the self-cleavage came out at 0.89.
To U5A U13C A69U C116A belongs 0.15.
As for A2U U26C A107U, the self-cleavage amounted to 0.
G4A U47C C51U A94G U115C: the self-cleavage stood at 0.71.
As to A2U U20C A42G A57U A142G, the self-cleavage came out at 0.1.
For C3U U20A U108A A117G G144A, the self-cleavage was 0.53.
To C3A U73C A142C belongs 1.06.
U5C C123U A129C U143C: the self-cleavage came out at 0.69.
With U5C U9A G21A C61U the figure was 0.21; with A2G U20C G55U U112C, 0.32; with G4A A77U U96A, 0.07.
C3U U29C G55U A59U A138U: the self-cleavage amounted to 0.6.
To A2U U23A A31G belongs 1.49; to C3U G70A U130C, 0.38.
In the case of U5C C63U A121U, the self-cleavage turned out to be 0.17.
For the variant C3U A43G C84U, the self-cleavage is 0.11.
On to U5C A69U U130A U134C, for which the self-cleavage came out at 0.32.
To A2U U85C U109A belongs 0.
Regarding C3A A22U U26C A78G A117G, the self-cleavage stood at 1.67.
G4A A50G U100A A142G: the self-cleavage came to 0.13.
Turning to A2U A31U G48A A57G U119A, the self-cleavage amounted to 0.56.
Take U5C G126U U134C: the self-cleavage turned out to be 1.33.
Consider U5C G34A U45C U87C, for which the self-cleavage was 0.27.
To C3U A6G A24G U112A belongs 0.92; to U5C U9A A22U U73C, 0.67; to C3U A42G A107G, 0.35.
On to G4A U20G U52C U87C, for which the self-cleavage is 0.
On to G4A U29C A124U, for which the self-cleavage is 1.23.
C3U A42G A67U A77U A121U: the self-cleavage stood at 0.17.
In the case of A2G U15C U47C, the self-cleavage was found to be 2.3.
A2G U15A A140G: the self-cleavage worked out at 0.8.
Regarding A2G U96C A142G, the self-cleavage stood at 0.19.
With C3U U15C U96G, the self-cleavage was determined as 0.33.
As for C3U U73A U81G A129U A136G, the self-cleavage was determined as 0.68.
As for G4A U5C U46C G72A U132C, the self-cleavage is 0.91.
Consider U5C G7A A50G, for which the self-cleavage was 0.82.
As for A2G U102A C131U A142G, the self-cleavage was found to be 1.36.
As for C3U A30G U73C, the self-cleavage is 0.66.
With A2U G8A A43G G48U A77U U96C U143C the figure was 0.04; with G4A U46A U115C, 1.01.
Take U5C A22G U87C: the self-cleavage is 0.
In the case of C3G A22G A31G A129C, the self-cleavage is 0.66.
With U5A G32A U91C U130A the figure was 0.45.
Regarding G4A C28U U62C U73A, the self-cleavage turned out to be 0.06.
U5C U9A C19U A22G: the self-cleavage was found to be 0.84.
Regarding U5C A67G A121G, the self-cleavage was 1.15.
To G4A U39G A43U A59U U85C U119C belongs 0.
With A2U C95G A107G C113A A141G the figure was 0; with A2G U45C U46A G72A, 1.23.
Regarding G4A G53U C71A U96C U109C, the self-cleavage stood at 0.04.
With U5C G7A U23C, the self-cleavage was determined as 1.24.
Consider G4A A57G G72A A78G A107G A121G, for which the self-cleavage was 0.
Consider U5A C51A A77G, for which the self-cleavage came to 1.79.
For the variant U5C U9C A43G, the self-cleavage was found to be 1.02.
With C3A A24C U85A C113U A124G U143C, the self-cleavage was found to be 0.08.
As for G4A G49U C146U, the self-cleavage was determined as 0.77.
For U5A A94U A136G, the self-cleavage is 0.31.
Regarding U5A G74A A79G, the self-cleavage was 0.69.
With G4A U45C A136C the figure was 0.7; with U5C G93A U115G A121G, 0.21.
As to U5C C51A U62C C146U, the self-cleavage was found to be 0.2.
With G4A U81C C133U the figure was 1.01; with U5A A6G A30G U47C, 1.43.
With A2G U20C U62C the figure was 0.
On to C3U U100C U130C A136G, for which the self-cleavage turned out to be 1.67.
As for C3U C66U U87A G127A, the self-cleavage turned out to be 0.03.
C3U G11A U115C A117U: the self-cleavage worked out at 1.43.
With U5A U23C A24G U52A U87A C103U the figure was 0.21; with A2U U9A U87C, 0.57; with C3G U14C A59U U73A A121G A140G, 1.36.
With U5C C145U C146U the figure was 0.48.
U5C G54A A107U: the self-cleavage was 0.51.
Take U5C A42G U85C U130C: the self-cleavage stood at 0.
To A2U U26A A77U belongs 0.72; to U5A C18A U26G A69G, 1.16.
As for U5A G7U U85C A140G, the self-cleavage was determined as 0.16.
As for U5C C90G A94G A124G, the self-cleavage was 0.26.
As for U5C A42C A94G A121U U134C, the self-cleavage was 2.16.
For G4C U52C A57U, the self-cleavage turned out to be 0.06.
As for U5C A6U U12A G54A U87A G137U, the self-cleavage stood at 0.36.
With A2U U13C U26G U39C A69G A79U U102C C123A, the self-cleavage turned out to be 0.38.
A2U A22U A141G: the self-cleavage was 1.12.
Take U5C A22U U143C: the self-cleavage came to 1.33.
As for G4A A92G A107U, the self-cleavage worked out at 0.26.
With U5A U29C U112A A140G the figure was 0.71; with A2G U39C A69G G135A U143C, 0; with A2U U20A U96A U100A, 0.1.
